Assay results reported in the supplement of paper PMC7125110.
± gives the standard error. This sample is rich in variants without activity.

B1: glmS ribozyme (parent)
chain: AUAAAAGCGCCAGAACUACAGAAAUGUAGUUGACGAGGAGGAGGUUUAUCGAAUUUUCGGCGGAUGCCUCCAAA

What was measured:
Conditions in all cases: with glucosamine-6-phosphate
glucosamine-6-phosphate [1] = variants of: B1; test: self-cleavage kobs at 40 uM GlcN6P; higher = faster cleavage; RNA array
Summary of the method: (§1)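 kobs was derived by fitting per-tile medians to one- or two-exponential decays after normalising signals to baseline and to non-cleaving reference variants. Those signals came from barcoded ribozyme variants transcribed in situ by E. coli RNA polymerase on sequenced MiSeq chips, followed through a hybridised Cy3 probe at 37 °C and imaged over ~14 h. Glucosamine-6-phosphate (40 μM to 10 mM) in HEPES/KCl/Mg(OAc)2 buffer was flowed in. Weighted Michaelis–Menten fits across concentrations then gave kcat and KM.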

glucosamine-6-phosphate [2] = variants of: B1; test: self-cleavage kobs at 10000 uM GlcN6P; higher = faster cleavage; RNA array
Summary of the method: as §1

glucosamine-6-phosphate [3] = variants of: B1; test: self-cleavage kobs at 640 uM GlcN6P; higher = faster cleavage; RNA array
Summary of the method: as §1

glucosamine-6-phosphate [4] = variants of: B1; test: self-cleavage kobs at 160 uM GlcN6P; higher = faster cleavage; RNA array
Summary of the method: as §1

glucosamine-6-phosphate [5] = variants of: B1; test: self-cleavage kobs at 2500 uM GlcN6P; higher = faster cleavage; RNA array
Summary of the method: as §1

Variant | self-cleavage kobs at 40 uM GlcN6P (glucosamine-6-phosphate [1]) | self-cleavage kobs at 10000 uM GlcN6P (glucosamine-6-phosphate [2]) | self-cleavage kobs at 640 uM GlcN6P (glucosamine-6-phosphate [3]) | self-cleavage kobs at 160 uM GlcN6P (glucosamine-6-phosphate [4]) | self-cleavage kobs at 2500 uM GlcN6P (glucosamine-6-phosphate [5])
C16U G29C A33G | < 1e-05 s⁻¹ | < 1e-05 s⁻¹ | – | – | –
C16U G32U G43U G51U U69G | < 1e-05 s⁻¹ | < 1e-05 s⁻¹ | – | – | –
C16U G37A | 7.36e-05 ± 1.1e-05 s⁻¹ | – | 0.000713 ± 7.9e-05 s⁻¹ | 0.000108 ± 1.3e-05 s⁻¹ | –
C16U G59C C61G | < 1e-05 s⁻¹ | < 1e-05 s⁻¹ | – | – | –
C16U U30A A52C | < 1e-05 s⁻¹ | – | – | – | –
C16U U31G G51A | < 1e-05 s⁻¹ | – | – | – | –
C16U U46G | 0.00014 ± 1.3e-05 s⁻¹ | 0.00531 ± 0.00055 s⁻¹ | 0.00131 ± 0.00016 s⁻¹ | 0.000489 ± 8.8e-05 s⁻¹ | 0.00323 ± 0.0005 s⁻¹
C16U U49A | < 1e-05 s⁻¹ | – | < 1e-05 s⁻¹ | < 1e-05 s⁻¹ | –
A18G | 0.00161 ± 0.00045 s⁻¹ | 0.0231 ± 0.01 s⁻¹ | – | – | –
C19A A36U G44A U45G | < 1e-05 s⁻¹ | < 1e-05 s⁻¹ | – | – | –
G26A A39U G40C | 5.34e-05 ± 1.4e-05 s⁻¹ | – | – | – | –
G29A A33C G43U C71U | < 1e-05 s⁻¹ | < 1e-05 s⁻¹ | – | – | –
G29A A39U | 0.000107 ± 1.9e-05 s⁻¹ | 0.0037 ± 0.00049 s⁻¹ | 0.000731 ± 0.00013 s⁻¹ | 0.000177 ± 3.4e-05 s⁻¹ | 0.00176 ± 0.0003 s⁻¹
G29A A42G G60U C67A | < 1e-05 s⁻¹ | – | – | – | –
G29A A48G | < 1e-05 s⁻¹ | – | < 1e-05 s⁻¹ | < 1e-05 s⁻¹ | –
G29A C34G | < 1e-05 s⁻¹ | < 1e-05 s⁻¹ | < 1e-05 s⁻¹ | < 1e-05 s⁻¹ | –
G29A G35C A39G G41U G43C G62A A64U | < 1e-05 s⁻¹ | – | – | – | –
G29A U31C G41C A48C C68G | < 1e-05 s⁻¹ | < 1e-05 s⁻¹ | – | – | –
G29C A39G | 0.000107 ± 1.2e-05 s⁻¹ | 0.00525 ± 0.00064 s⁻¹ | 0.000768 ± 0.00012 s⁻¹ | 0.000305 ± 6.8e-05 s⁻¹ | 0.00223 ± 0.00037 s⁻¹
G29C A52C | < 1e-05 s⁻¹ | < 1e-05 s⁻¹ | < 1e-05 s⁻¹ | < 1e-05 s⁻¹ | < 1e-05 s⁻¹
G29C G41C U57A | < 1e-05 s⁻¹ | < 1e-05 s⁻¹ | – | – | –
G29C G44A | < 1e-05 s⁻¹ | – | – | – | –
G29C G62U | < 1e-05 s⁻¹ | – | – | < 1e-05 s⁻¹ | –
G29C G66C | < 1e-05 s⁻¹ | – | – | – | –
G29C U30C A33C A42G U55A U56A | < 1e-05 s⁻¹ | < 1e-05 s⁻¹ | – | – | –
G29C U31G G60U | < 1e-05 s⁻¹ | – | – | – | –
G29C U46A G63U | < 1e-05 s⁻¹ | – | – | – | –
